The values below come from PMC6212790.

Some of the results follow. At the low end of the ranking the order means little.

The test concerns the target T1, GST-Rok (full length) (UniProt O34857).
T1 sequence: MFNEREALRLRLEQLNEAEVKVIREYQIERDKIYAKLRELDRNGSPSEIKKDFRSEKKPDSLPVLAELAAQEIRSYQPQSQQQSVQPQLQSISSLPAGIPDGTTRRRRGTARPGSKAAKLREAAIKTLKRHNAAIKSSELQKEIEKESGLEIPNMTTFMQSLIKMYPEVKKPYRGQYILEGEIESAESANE
In words: protein binding microarray.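 Also: rank score from −0.5 (least bound) to 0.5 (best bound).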 The conditions noted are these: Rok is a gene silencer of Bacillus subtilis; high values mean tight binding; most listed sequences are background and not binding sites; double strand, one strand shown.
ACCGATTC yielded a binding signal of 0.049 E-score. TAACAGCA showed a binding signal of 0.076 E-score. With AATACACA the figure was 0.234 E-score; with GCAACCGC, -0.205 E-score. With CTTGCCTA the figure was -0.147 E-score. In turn, GCCCACCA came in with a binding signal of -0.419 E-score. Turning to CATTGATA, the binding signal is 0.237 E-score. Consider AAAGTAAA, for which the binding signal came to 0.195 E-score. CATCTGAC had a binding signal of -0.0595 E-score.

AGGGGCTC: the binding signal is -0.331 E-score. With ACAAGTTG the figure was 0.0787 E-score; with GGTCTAAC, -0.0369 E-score; with GACCAGGC, -0.135 E-score.

Sequence TGATCGCA showed a binding signal of 0.0564 E-score. With ACCTGGTC the figure was -0.147 E-score. For the sequence ATAATCAC, the binding signal is 0.199 E-score.

For GCGCTGAC, the binding signal is -0.214 E-score. With TAATCGAA the figure was 0.22 E-score; with CCTCTATC, -0.206 E-score; with AACTCTTA, 0.178 E-score. With CATGCCGA the figure was 0.0242 E-score. Regarding ACGTGGTC, the binding signal is -0.397 E-score. CCGGCTCG: the binding signal is -0.278 E-score. In turn, CGGAGGCC gave a binding signal of -0.294 E-score. With CCGCCTTC the figure was -0.238 E-score; with AAGTATGT, 0.168 E-score; with GGACGCAC, -0.198 E-score. The sequence ATAACACC came in with a binding signal of 0.215 E-score. With AGCGCCTG the figure was -0.37 E-score; with GACATCTA, 0.175 E-score; with CTTGAGTA, -0.0371 E-score. Sequence CACCTTAG returned a binding signal of -0.178 E-score. With ACACAGTA the figure was 0.115 E-score; with AGATCCCA, -0.0786 E-score; with AAAGATTC, -0.0338 E-score.

The sequence ACAGGGAC returned a binding signal of -0.267 E-score. With ATGGGAAA the figure was -0.112 E-score; with ACTACTCA, 0.281 E-score. With ACTTCAAG, the binding signal amounted to 0.0223 E-score.

On to GTGAATCA, for which the binding signal was -0.159 E-score. With AATATGTC the figure was 0.106 E-score; with GAAACAGA, 0.0947 E-score. With CCCGTAAC the figure was -0.0818 E-score. With CGTTTTTC the figure was -0.137 E-score. As to ACATGAGA, the binding signal is 0.185 E-score.

Turning to ACTGATTC, the binding signal stood at 0.034 E-score. With ACATGAAG the figure was -0.0351 E-score.

On to AAGTCAGC, for which the binding signal is -0.158 E-score. With ACTGGGCA the figure was -0.311 E-score. In the case of AAGACTTG, the binding signal is 0.0559 E-score.

On to ATACTCTC, for which the binding signal is -0.0829 E-score. The sequence AGTTACAT showed a binding signal of 0.276 E-score. Consider TAGACATA, for which the binding signal stood at 0.149 E-score.

In turn, GATTTGCC gave a binding signal of 0.0218 E-score. With CTAGTAGA the figure was 0.404 E-score; with TCATGCCA, -0.0033 E-score; with CGATTCGC, -0.108 E-score. CAGTCCTC registered a binding signal of -0.234 E-score.

As to CTTGACTA, the binding signal worked out at 0.18 E-score. With CCTACAGC the figure was 0.0204 E-score. For the sequence GAGCCGAA, the binding signal was -0.103 E-score.

With ATTTGCAG, the binding signal is -0.00233 E-score. With GAATTTAC the figure was 0.268 E-score; with AAAATAAC, 0.208 E-score.

Regarding CAGAACAC, the binding signal was -0.133 E-score.

For the sequence CGCGTCGA, the binding signal is -0.0968 E-score. As to ATTTACGC, the binding signal was determined as 0.0487 E-score.

With GGAAGGAC, the binding signal is -0.3 E-score. With AACGACGC the figure was -0.242 E-score; with GCAAGCGA, -0.0433 E-score; with ACGGTTCT, 0.164 E-score. CCAGAGAC had a binding signal of -0.251 E-score.

The sequence ATCATGAC returned a binding signal of 0.0762 E-score. With AGGGCTGC the figure was -0.227 E-score. With CCGCAATC the figure was -0.0874 E-score; with CCAGGTTA, -0.0411 E-score; with ACTTCCGC, 0.114 E-score. With TCTCCGCA the figure was -0.227 E-score.

ATATTTTG showed a binding signal of 0.297 E-score.

Sequence ATCATAGG gave a binding signal of 0.0713 E-score. With ACAAGTTC the figure was 0.149 E-score; with ACCAAGTC, -0.236 E-score; with ATGCTAAA, 0.236 E-score.

TGACTGCA yielded a binding signal of -0.0382 E-score. The sequence ACTCTTTC gave a binding signal of -0.169 E-score. In turn, AAATTGTG came in with a binding signal of 0.172 E-score. In turn, GCCGTCAA showed a binding signal of -0.116 E-score.

The sequence AAGCTTGG showed a binding signal of 0.00531 E-score. With GCATTAGA the figure was 0.129 E-score; with CGTCCCAG, -0.231 E-score; with CACAGCGC, -0.227 E-score. With CAAAGACC the figure was -0.0604 E-score; with AAGTATAT, 0.348 E-score; with ATATGCAG, 0.167 E-score.
